# Results as given in the antibiotic and cytotoxicity screens of Wong et al. (2023).
# The other results are listed elsewhere or left out.
# Legend:
# HSkMC = human skeletal muscle cells; experiment: cytotoxicity call (relative viability < 0.9); settings: 10 µM
# HepG2 = experiment: cytotoxicity call (relative viability < 0.9); settings: 10 µM
# S. aureus RN4220 = experiment: growth inhibition call (relative growth <= 0.2); settings: 50 µM
SMILES,cytotoxicity call (HSkMC),cytotoxicity call (HepG2),growth inhibition call (S. aureus RN4220)
Cc1ccc(OC(=O)N(C)C[C@@H]2OCc3ccccc3-c3ccccc3C(=O)N([C@H](C)CO)C[C@@H]2C)cc1,inactive,inactive,inactive
C[C@@H]1CN([C@@H](C)CO)C(=O)c2cc(NS(=O)(=O)c3ccc(Cl)cc3)ccc2O[C@@H](C)CCCCO[C@H]1CN(C)S(=O)(=O)c1ccc(Cl)cc1,inactive,inactive,inactive
C[C@H](CO)N1C[C@H](C)[C@@H](CN(C)Cc2ccc(C(F)(F)F)cc2)Oc2c(NC(=O)Nc3ccc(F)cc3)cccc2C1=O,inactive,active,inactive
CC(C)NC(=O)N(C)C[C@@H]1Oc2ccc(NC(=O)CCN3CCOCC3)cc2C(=O)N([C@@H](C)CO)C[C@@H]1C,inactive,inactive,inactive
C[C@H]1CN([C@@H](C)CO)C(=O)c2cc(NC(=O)Cn3cnnn3)ccc2O[C@@H]1CN(C)Cc1ccc(C(F)(F)F)cc1,inactive,inactive,inactive
NC(=S)Nc1ccncc1,inactive,inactive,inactive
C[C@@H]1CN([C@H](C)CO)C(=O)c2cc(NC(=O)c3ccncc3)ccc2O[C@H]1CN(C)S(=O)(=O)c1cn(C)cn1,inactive,inactive,inactive
CN(C)CCCNC(=O)C[C@@H]1CC[C@@H]2[C@@H](COc3ccc(NC(=O)c4cccc(F)c4)cc3C(=O)N2C)O1,inactive,inactive,inactive
C[C@H](CO)N1C[C@H](C)[C@H](CN(C)Cc2ccc(C(=O)Nc3ccccc3N)cc2)Oc2ccc(NC(=O)Cc3ccccc3)cc2C1=O,inactive,inactive,inactive
COCCNC(=O)C[C@H]1C[C@H]2c3cc(NC(=O)COC)ccc3O[C@H]2[C@H](CO)O1,inactive,inactive,inactive
C[C@@H]1CCCCO[C@H](CN(C)S(=O)(=O)c2ccc(Cl)cc2)[C@@H](C)CN([C@H](C)CO)C(=O)c2cc(NC(=O)CCC(F)(F)F)ccc2O1,inactive,inactive,inactive
C[C@H](CO)N1C[C@H](C)[C@H](CN(C)C(=O)Nc2cccc3ccccc23)Oc2c(NC(=O)Nc3ccc(F)cc3)cccc2C1=O,inactive,inactive,inactive
Cc1noc(C)c1NC(=O)Nc1cccc2c1O[C@H](CN(C)Cc1ccc(C(=O)Nc3ccccc3N)cc1)[C@@H](C)CN([C@@H](C)CO)C2=O,inactive,inactive,inactive
C[C@@H]1CN([C@H](C)CO)C(=O)c2cccc(NC(=O)Nc3ccc(C(F)(F)F)cc3)c2O[C@@H]1CN(C)Cc1ccc(-c2ccccc2)cc1,active,active,inactive
C[C@@H]1CCCCO[C@@H](CN(C)Cc2ccncc2)[C@@H](C)CN([C@H](C)CO)C(=O)c2cc(NC(=O)CCC(F)(F)F)ccc2O1,inactive,inactive,inactive
O=C(CN1CCOCC1)N[C@@H]1CC[C@H](CCNC(=O)C2CCCCC2)O[C@H]1CO,inactive,inactive,inactive
CO[C@H]1CN(C)C(=O)c2ccc(NS(=O)(=O)CC(F)(F)F)cc2OC[C@@H](C)N(Cc2nccs2)C[C@H]1C,inactive,inactive,inactive
C[C@H]1CCCCO[C@@H](CN(C)C(=O)NC2CCCCC2)[C@@H](C)CN([C@@H](C)CO)C(=O)c2cc(NS(=O)(=O)c3cccs3)ccc2O1,inactive,inactive,inactive
C[C@H]1CN([C@@H](C)CO)C(=O)Cc2cc(NC(=O)Nc3cccc4ccccc34)ccc2O[C@@H]1CN(C)CC1CCCCC1,active,active,inactive
O=C(C[C@@H]1CC[C@@H]2[C@H](COC[C@H](O)CN2S(=O)(=O)c2ccccc2)O1)N1CCOCC1,inactive,inactive,inactive
N[C@H]1CC[C@H](CCn2cc(C3CC3)nn2)O[C@@H]1CO,inactive,inactive,inactive
CCO[C@H]1OC(C(=O)N2CCN(Cc3ccc4c(c3)OCO4)CC2)=C[C@@H](c2csc3ccccc23)[C@@H]1CCCOC(=O)NCCCCCC(=O)NO,inactive,inactive,inactive
CC(=O)NS(=O)(=O)c1ccccc1,inactive,inactive,inactive
CCOC(=O)C1=C(COCCN)NC(C)=C(C(=O)OC)C1c1ccccc1Cl.O=S(=O)(O)c1ccccc1 (centres undefined),inactive,active,inactive
C[C@@H]1CN([C@H](C)CO)C(=O)c2cc(NS(=O)(=O)c3ccc(F)cc3)ccc2O[C@@H](C)CCCCO[C@H]1CN(C)C(=O)Nc1ccc(F)cc1,inactive,inactive,inactive
CC12C=CC(=O)C=C1CCC1C2C(O)CC2(C)C1CCC2(O)C(=O)COP(=O)([O-])[O-].[Na+].[Na+] (centres undefined),inactive,inactive,inactive
C[C@@H]1CN([C@@H](C)CO)C(=O)Cc2cc(NC(=O)Nc3ccc4c(c3)OCO4)ccc2O[C@H]1CN(C)Cc1ccc(-c2ccccc2)cc1,inactive,active,inactive
C[C@@H]1CN([C@H](C)CO)S(=O)(=O)c2ccc(C#CC3CC3)cc2O[C@H]1CN(C)C(=O)Cc1ccncc1,inactive,inactive,inactive
